Laboratory results as given in patent US20230365958.

B1: Mutant J (D74A) modified PPE protein, activated (protein)
chain: VVGGTEAQRNSWPSQISLQYRSGSSWAHTCGGTLIRQNWVMTAAHCVARELTFRVVVGEHNLNQNDGTEQYVGVQKIVVHPYWNTDDVAAGYDIALLRLAQSVTLNSYVQLGVLPRAGTILANNSPCYITGWGLTRTNGQLAQTLQQAYLPTVDYAICSSSSYWGSTVKNSMVCAGGDGVRSGCQGDSGGPLHCLVNGQYAVHGVTSFVSRLGCNVTRKPTVFTRVSAYISWINNVIASNHHHHHH
B2: wild-type PPE protein (native PPE; wild-type, active PPE peptidase domain) (protein)
chain: VVGGTEAQRNSWPSQISLQYRSGSSWAHTCGGTLIRQNWVMTAAHCVDRELTFRVVVGEHNLNQNDGTEQYVGVQKIVVHPYWNTDDVAAGYDIALLRLAQSVTLNSYVQLGVLPRAGTILANNSPCYITGWGLTRTNGQLAQTLQQAYLPTVDYAICSSSSYWGSTVKNSMVCAGGDGVRSGCQGDSGGPLHCLVNGQYAVHGVTSFVSRLGCNVTRKPTVFTRVSAYISWINNVIASN
B3: wild-type PPE proprotein (WT rPPE) (protein)
chain: VVGGTEAQRNSWPSQISLQYRSGSSWAHTCGGTLIRQNWVMTAAHCVDRELTFRVVVGEHNLNQNDGTEQYVGVQKIVVHPYWNTDDVAAGYDIALLRLAQSVTLNSYVQLGVLPRAGTILANNSPCYITGWGLTRTNGQLAQTLQQAYLPTVDYAICSSSSYWGSTVKNSMVCAGGDGVRSGCQGDSGGPLHCLVNGQYAVHGVTSFVSRLGCNVTRKPTVFTRVSAYISWINNVIASN
B4: Mutant A (N241A) modified PPE protein, activated (protein)
chain: VVGGTEAQRNSWPSQISLQYRSGSSWAHTCGGTLIRQNWVMTAAHCVDRELTFRVVVGEHNLNQNDGTEQYVGVQKIVVHPYWNTDDVAAGYDIALLRLAQSVTLNSYVQLGVLPRAGTILANNSPCYITGWGLTRTNGQLAQTLQQAYLPTVDYAICSSSSYWGSTVKNSMVCAGGDGVRSGCQGDSGGPLHCLVNGQYAVHGVTSFVSRLGCAVTRKPTVFTRVSAYISWINNVIASNHHHHHH
B5: Mutant C (R75A) modified PPE protein, activated (protein)
chain: VVGGTEAQRNSWPSQISLQYRSGSSWAHTCGGTLIRQNWVMTAAHCVDAELTFRVVVGEHNLNQNDGTEQYVGVQKIVVHPYWNTDDVAAGYDIALLRLAQSVTLNSYVQLGVLPRAGTILANNSPCYITGWGLTRTNGQLAQTLQQAYLPTVDYAICSSSSYWGSTVKNSMVCAGGDGVRSGCQGDSGGPLHCLVNGQYAVHGVTSFVSRLGCNVTRKPTVFTRVSAYISWINNVIASNHHHHHH
B6: Mutant D (R75E) modified PPE protein, activated (protein)
chain: VVGGTEAQRNSWPSQISLQYRSGSSWAHTCGGTLIRQNWVMTAAHCVDEELTFRVVVGEHNLNQNDGTEQYVGVQKIVVHPYWNTDDVAAGYDIALLRLAQSVTLNSYVQLGVLPRAGTILANNSPCYITGWGLTRTNGQLAQTLQQAYLPTVDYAICSSSSYWGSTVKNSMVCAGGDGVRSGCQGDSGGPLHCLVNGQYAVHGVTSFVSRLGCNVTRKPTVFTRVSAYISWINNVIASNHHHHHH
B7: Mutant F (Q211F) modified PPE protein, activated (protein)
chain: VVGGTEAQRNSWPSQISLQYRSGSSWAHTCGGTLIRQNWVMTAAHCVDRELTFRVVVGEHNLNQNDGTEQYVGVQKIVVHPYWNTDDVAAGYDIALLRLAQSVTLNSYVQLGVLPRAGTILANNSPCYITGWGLTRTNGQLAQTLQQAYLPTVDYAICSSSSYWGSTVKNSMVCAGGDGVRSGCFGDSGGPLHCLVNGQYAVHGVTSFVSRLGCNVTRKPTVFTRVSAYISWINNVIASNHHHHHH
B8: Mutant G (R237A) modified PPE protein, activated (protein)
chain: VVGGTEAQRNSWPSQISLQYRSGSSWAHTCGGTLIRQNWVMTAAHCVDRELTFRVVVGEHNLNQNDGTEQYVGVQKIVVHPYWNTDDVAAGYDIALLRLAQSVTLNSYVQLGVLPRAGTILANNSPCYITGWGLTRTNGQLAQTLQQAYLPTVDYAICSSSSYWGSTVKNSMVCAGGDGVRSGCQGDSGGPLHCLVNGQYAVHGVTSFVSALGCNVTRKPTVFTRVSAYISWINNVIASNHHHHHH
B9: Mutant H (T55A) modified PPE protein, activated (protein)
chain: VVGGTEAQRNSWPSQISLQYRSGSSWAHACGGTLIRQNWVMTAAHCVDRELTFRVVVGEHNLNQNDGTEQYVGVQKIVVHPYWNTDDVAAGYDIALLRLAQSVTLNSYVQLGVLPRAGTILANNSPCYITGWGLTRTNGQLAQTLQQAYLPTVDYAICSSSSYWGSTVKNSMVCAGGDGVRSGCQGDSGGPLHCLVNGQYAVHGVTSFVSRLGCNVTRKPTVFTRVSAYISWINNVIASNHHHHHH

Target: human alpha-1-anti-trypsin, P01009
Sequence (P01009 whole entry, looked up): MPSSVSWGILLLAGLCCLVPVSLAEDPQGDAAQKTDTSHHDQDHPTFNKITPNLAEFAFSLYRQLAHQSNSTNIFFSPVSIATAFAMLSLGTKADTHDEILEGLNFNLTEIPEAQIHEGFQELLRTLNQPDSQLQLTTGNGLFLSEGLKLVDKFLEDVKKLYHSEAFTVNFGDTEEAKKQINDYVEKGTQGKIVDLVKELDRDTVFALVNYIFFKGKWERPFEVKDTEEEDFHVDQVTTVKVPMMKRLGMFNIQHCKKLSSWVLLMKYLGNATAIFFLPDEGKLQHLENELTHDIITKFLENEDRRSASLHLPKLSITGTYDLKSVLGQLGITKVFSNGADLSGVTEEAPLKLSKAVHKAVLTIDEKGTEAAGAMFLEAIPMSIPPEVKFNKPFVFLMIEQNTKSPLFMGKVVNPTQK

In order of falling Slope (linear regression of the decrease in enzyme activity versus A1AT concentration, 0-20 nM A1AT, colorimetric substrate assay):
1. B9  -0.8
2. B8  -2
3. B2  -2.06
4. B3  -2.68
5. B5  -2.86
6. B7  -3.37
7. B4  -3.64
8. B6  -3.94
9. B1  -4.98
